# From the RNAGym collection of RNA variant scans (doi:10.1073/pnas.2313332121)
# Variants at the floor of the assay are shown more often than the library holds them.
# B1: TPR 5TU (parent)
# chain: GGAUCUUCUCGAUCUAACAAAAAAGACAAAUCUGCCACAAAGCUUGAGAGCAUCUUCGGAUGCAGAGGCGGCAGCCUUCGGUGGCGCGAUAGCGCCAACGUUCUCAACUAUGACACGCAAAACGCGUGCUCCGUUGAAUGGAGUUUAUCAUG
# Variants of: B1
# Assay: polymerase ribozyme fitness, log enrichment relative to wild type (log ratio); higher = more active; in vitro selection for triplet polymerase activity
# Outline: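 Mutant libraries were PCR-built and transcribed for each subunit of a heterodimeric triplet polymerase ribozyme and selected for one round in triplicate at −7 °C, frozen, before gel excision of extended constructs and streptavidin-bead capture. Input and output libraries were Illumina-sequenced, keeping genotypes with ≥10 input reads and ≥1 read per output. Fitness is a logarithmic ratio of genotype to wild-type enrichment, in base 2, using inverse-variance-weighted replicate averages.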
row,Variant,polymerase ribozyme fitness (log ratio)
1,G34U C69U G94U,≤ -4.2
2,G34U G48C A91U G126A U134A,≤ -4.2
3,U33G C35A A91U C108G U145G,≤ -4.2
4,U33G A39U C43U G84A G117A A119U,≤ -4.2
5,U33G C95U,-2.22
6,U33G U56A G71A U82C A91C C108U G143C,≤ -4.2
7,G34C G68U C108A G124U U135G C149U,≤ -4.2
8,G34U A40U G59C A60G C95U C131U U144C,≤ -4.2
9,U33G A40U A91U,≤ -4.2
10,G34A G67U C76G A91G C116G,≤ -4.2
11,G34U U55A U82C U90G A107U G143A U144G,≤ -4.2
12,U33G G124A U134G,≤ -4.2
13,G34A C76U U77G U111G,≤ -4.2
14,U33G G88U C125U G140A,≤ -4.2
15,G34A C35A U55A G68A C69A C96G G117A G128U,≤ -4.2
16,G34U G83A C129G G141A,≤ -4.2
17,G34U G42A U82C U135C,≤ -4.2
18,U33G U77G U104G,≤ -4.2
19,G34U C54G G83U A106G C116U G136A,≤ -4.2
20,G34A C87A C123U G133U U148A,≤ -4.2
21,G34U C87G G92C C105A G126U,≤ -4.2
22,G34A G46A C76G G136A U144A,≤ -4.2
23,U33G A39C A52U G70U U111G C116G A121U U146G,≤ -4.2
24,G34U A49G G65A C87U A107U U135C,≤ -4.2

row,Variant,polymerase ribozyme fitness (log ratio)
1,G34C U55C U77A C93G C108U,≤ -4.2
2,C35A A39U C96A,≤ -4.2
3,U33G G80U C87U A91G A113G C118U,≤ -4.2
4,G34A C93G,≤ -4.2
5,G34A C93A,-3.6
6,U33G U53A G59A A66G G133U U139A,≤ -4.2
7,U33G C35G C99U A137G A138U,≤ -4.2
8,C35A A47C U61A U77A C93U,≤ -4.2
9,U33G G58C A91G U104C U145G,≤ -4.2
10,C35A,-2.69
11,G34U A37G G50U A89C G92A A138U,≤ -4.2
12,G34A A120C,0.113
13,G34C A52G G84A U109A C125U,≤ -4.2
14,U33G U53A C57A U61C G136C,≤ -4.2
15,U33G U44A C76A G80C A91U A97C U104G U127G,≤ -4.2
16,G34A A60G G94A A147G A150C,≤ -4.2
17,G34A C54G G86A A107G A137U A142C,≤ -4.2
18,U33G C105U U130C U145C,≤ -4.2
19,G34U G42U C57G C87A G100U A110C U135A G141U,≤ -4.2
20,U33G A52G U130G C131U G133U U146A,≤ -4.2
21,G34C A89C C93U U135C U146A,≤ -4.2
22,G34U U90C U102C U151C,≤ -4.2
23,U33G G58C U90G,≤ -4.2
24,U33G G34A C95U,≤ -4.2

row,Variant,polymerase ribozyme fitness (log ratio)
1,G34U C76G U82A C132A A147U,≤ -4.2
2,G34A C35A U56G G71U G80U G83A A98U,≤ -4.2
3,G34U A47G C57G G68A U102A,≤ -4.2
4,G34A C79G G94A C105U,≤ -4.2
5,U33G C54A G83A C85G C116U G140U,≤ -4.2
6,U33G G42A C103U U111G C129A G152U,≤ -4.2
7,G34C G81C C93G C118U,≤ -4.2
8,G34U A47C A49C A66U U102A A107G,≤ -4.2
9,G34C C51G C57U G83C,≤ -4.2
10,U33G C69G C79A G92A A106C A115U G136U,≤ -4.2
11,G34A G46A A49C G67C C76A,≤ -4.2
12,U33G U78G G83C A98G U101G C116A G117U,≤ -4.2
13,G34U C85U C103A U135A,≤ -4.2
14,U33G C51U U78G G83U C116A C131G,≤ -4.2
15,U33G C87G C105G A121U C123G U134G G143A,≤ -4.2
16,G34U G94C,-3.96
17,U33G U45C U78C C116U U146G,≤ -4.2
18,G34U G46C A73U C75A C85U A113G,≤ -4.2
19,U33G C99G A107G G141A,≤ -4.2
20,G34A A49C C76U C85U C131G,≤ -4.2
21,U33G C75A U104G U139A,≤ -4.2
22,G34A A41C G86C U90G A137C G140C U146G,≤ -4.2
23,G34A C79U U127G A137G G141C,≤ -4.2
24,U33G C79A G83C U148A,≤ -4.2

row,Variant,polymerase ribozyme fitness (log ratio)
1,C35A A40G C96U U146G,≤ -4.2
2,U33G G70A U78A A89U G94U C131G,≤ -4.2
3,G34C G50U C54A G94U C99U,≤ -4.2
4,G34A C35A G83C A106U G133U A137G G141U,≤ -4.2
5,U33G C51U A97U G136A A142C,≤ -4.2
6,G34A G50C A110G U135G U148G,≤ -4.2
7,G34C C43A G84U C93G G126U U144C,≤ -4.2
8,G34C C51A G58A G59C C96A A107U,≤ -4.2
9,G34U A40G G67C G68A G126A,≤ -4.2
10,G34A A91C C103U U139G G140A U145A U148C,≤ -4.2
11,C35A A47C G86U U146G U151A,≤ -4.2
12,U33G C43A G46U G94U,≤ -4.2
13,G34A U101A,-2.82
14,U33G A49G C54A U55A G117C U127A,≤ -4.2
15,U33G G65C U78G A98G C149A,≤ -4.2
16,C35A A47U C57U U101A C114G C123U,≤ -4.2
17,U33G C38A U53A U55A C95U A106U G126C,≤ -4.2
18,U33G C76U G88C,≤ -4.2
19,G34C C38U G59A U82C C103A C125G,≤ -4.2
20,U33G A39U A49C A60U G68A G80A C85U C87U A97U A138U,≤ -4.2
21,G34C C85U C96U G128A,≤ -4.2
22,G34U C51U U61A G81U A91U,≤ -4.2
23,U33G G34C A49U A89G C93A C123G G136U,≤ -4.2
24,G34A U61A C72A G143C,≤ -4.2

row,Variant,polymerase ribozyme fitness (log ratio)
1,G34U C76G C79U G94A C96G A97U C103A A107U A120U U145A C149U,≤ -4.2
2,G34A A49C U61G G94A U139G,≤ -4.2
3,G34A U55G G84A A138G U146G,≤ -4.2
4,C35A A37U A52C C85U U104G C114U,≤ -4.2
5,U33G U53A C63A C118A,≤ -4.2
6,G34U G68U C95G G133A,≤ -4.2
7,G34C G70C G94C U102G A147C A150G,≤ -4.2
8,U33G A41C G50C A73U G74A A97G G126U U134C,≤ -4.2
9,G34A A60G G140U C149U,≤ -4.2
10,U33G G86U U101G U111A,≤ -4.2
11,U33G G50C C72A C85G A106G C125A U144A,≤ -4.2
12,G34U A49C G65C G68U C87U C125A,≤ -4.2
13,G34A U56A G84A G94C A106C G141A,≤ -4.2
14,G34C A47C U56A,≤ -4.2
15,U33G C85A C118A G126C U146A C149U,≤ -4.2
16,U33G C43U A49C U77G A91U U101A C105G,≤ -4.2
17,U33G A64G C72G U77A C87G G92C C99A A121U,≤ -4.2
18,G34U C51G G70C A89U A115U U134A G140U,≤ -4.2
19,G34U A52C U53A C85U A97U C99G C114A,≤ -4.2
20,G34A U55A G70U G80U G86A,≤ -4.2
21,U33G G50A A73C C95A C105A A107G G143C,≤ -4.2
22,U33G A41C C43U G50A G152U,-4.07
23,U33G C108A A122U,≤ -4.2
24,G34A G92A C149A,≤ -4.2

row,Variant,polymerase ribozyme fitness (log ratio)
1,U33G G84C C132U,≤ -4.2
2,G34A C85A G133A,≤ -4.2
3,G34A A52U U56A G94A,≤ -4.2
4,G34U C57A C103G C108A,≤ -4.2
5,C35A A41G G143C A147C,≤ -4.2
6,U33G C35U G59U C75G G128A U139A,-4.05
7,U33G C75A C116U C131A,≤ -4.2
8,G34U U55A A91G G94U,≤ -4.2
9,U33G A49C G86U A115G,≤ -4.2
10,U33G C76U A107C C131A,≤ -4.2
11,G34U A106G,-0.622
12,C35A A41U C95U C118U A120U U146A,≤ -4.2
13,U33G C38A C93U A113U G136A A138U,≤ -4.2
14,G34U C99G A106U U127A C132U U139C,≤ -4.2
15,U33G A39G G62U G92A A122U U134A,≤ -4.2
16,U33G C95G U145A,≤ -4.2
17,G34U A41C G94A U134A A138C,≤ -4.2
18,G34A A66U C75U A137G,≤ -4.2
19,C35A A41C C57U C85G,≤ -4.2
20,U33G G58A A150G,≤ -4.2
21,G34C C51G G59A C75G,≤ -4.2
22,U33G A91G,≤ -4.2
23,G34U G42U C76U G92U C118G,≤ -4.2
24,G34C G42U G136A,≤ -4.2

row,Variant,polymerase ribozyme fitness (log ratio)
1,G34A U55A G65A C76U C85U G117A C125U G126A U134A,≤ -4.2
2,G34C C35U G59A C87A G88U C105A,≤ -4.2
3,U33G G65A C93G U111G,≤ -4.2
4,U33G G42C G71U C95A A115U C116G,≤ -4.2
5,G34A A37G U45G G94A U134C U139A,≤ -4.2
6,U33G A49U A60G G112U U148A U151G,≤ -4.2
7,U33G A115U G124C,≤ -4.2
8,U33G G84A C87G C96G,≤ -4.2
9,G34U C54U C69G G92U C103U C114U,≤ -4.2
10,G34A A41G G94A G133U G143U U146C,≤ -4.2
11,C35A A39C G58U G62C G67C A73G C93G C96A A98G,≤ -4.2
12,C35A A47C G81U,≤ -4.2
13,G34C G74A U109A C123U C149U,≤ -4.2
14,U33G A47G U55A C75A,≤ -4.2
15,G34U G88U A91U A122C,≤ -4.2
16,G34A C93A A107C,≤ -4.2
17,U33G G34C A37G A60C A91G G126C U148G,≤ -4.2
18,G34A C85A A91C C103G,≤ -4.2
19,G34C C57A C87U G141C,≤ -4.2
20,U33G C36U A49U G70U G92C,≤ -4.2
21,G34C A52G U78C U82C G86C A106G G143C,≤ -4.2
22,G34A U55A G74U,≤ -4.2
23,U33G U53A G152U,≤ -4.2
